The results in this text go back to PMC4336329 (PLoS ONE, 2015).

Out of some 310,000 compounds screened, about 14,000 (4.5%) showed an effect of 50% or more. The effect is printed as a negative number. Some of the results follow.
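Further: peak tail current of the secondary pulse compared with the same well before compound.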

The experiment deals with human ether-à-go-go-related gene (hERG) potassium channel (human, UniProt Q12809). As to the kind of experiment: primary screen, population patch clamp on CHO cells stably expressing hERG.
human ether-à-go-go-related gene (hERG) potassium channel, sequence (Q12809 whole entry, looked up): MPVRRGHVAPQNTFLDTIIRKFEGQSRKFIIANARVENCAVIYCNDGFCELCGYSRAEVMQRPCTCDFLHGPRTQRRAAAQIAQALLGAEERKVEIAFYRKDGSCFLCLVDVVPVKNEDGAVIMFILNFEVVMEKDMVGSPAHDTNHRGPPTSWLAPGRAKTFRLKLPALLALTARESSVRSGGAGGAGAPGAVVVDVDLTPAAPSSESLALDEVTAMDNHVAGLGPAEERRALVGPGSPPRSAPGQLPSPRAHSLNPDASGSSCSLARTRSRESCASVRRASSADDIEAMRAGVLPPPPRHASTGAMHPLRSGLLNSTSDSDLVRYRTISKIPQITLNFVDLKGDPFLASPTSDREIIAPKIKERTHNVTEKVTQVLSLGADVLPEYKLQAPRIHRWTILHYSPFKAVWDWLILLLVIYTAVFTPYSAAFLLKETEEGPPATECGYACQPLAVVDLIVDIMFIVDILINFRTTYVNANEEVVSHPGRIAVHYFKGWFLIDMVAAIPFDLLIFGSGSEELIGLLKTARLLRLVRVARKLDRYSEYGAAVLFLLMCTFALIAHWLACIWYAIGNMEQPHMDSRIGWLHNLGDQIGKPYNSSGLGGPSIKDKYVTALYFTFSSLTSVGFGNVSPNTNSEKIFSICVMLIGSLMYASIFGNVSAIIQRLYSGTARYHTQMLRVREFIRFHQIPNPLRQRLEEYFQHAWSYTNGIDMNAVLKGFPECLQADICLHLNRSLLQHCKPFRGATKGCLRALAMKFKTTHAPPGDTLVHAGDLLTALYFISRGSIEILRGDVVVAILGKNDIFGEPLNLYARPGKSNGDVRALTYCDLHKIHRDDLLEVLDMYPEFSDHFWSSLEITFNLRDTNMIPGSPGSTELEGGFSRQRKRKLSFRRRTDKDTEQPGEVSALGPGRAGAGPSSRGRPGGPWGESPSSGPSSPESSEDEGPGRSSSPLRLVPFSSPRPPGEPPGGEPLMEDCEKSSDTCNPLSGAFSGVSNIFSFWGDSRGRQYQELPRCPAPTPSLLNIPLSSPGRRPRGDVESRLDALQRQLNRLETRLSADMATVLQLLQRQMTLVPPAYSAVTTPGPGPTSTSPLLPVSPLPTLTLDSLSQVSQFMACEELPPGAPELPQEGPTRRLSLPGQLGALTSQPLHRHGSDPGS
Take `COc1ccc(-c2nc(SCC(=O)Nc3c(F)cccc3F)n[nH]2)cc1`: the “hERG current change (%, negative = inhibition) at 10uM” value is -36.1%.
The result for `Cc1nn(CCC(=O)NNC(=S)Nc2ccc(Cl)cc2)c(C)c1[N+](=O)[O-]` reads 9.72%; that for `Cc1cccc(CCNC(=O)CCS(=O)(=O)c2ccc3nc(C)sc3c2)c1`, 7.85%.
`CCn1c(=N)n(CC(O)c2ccco2)c2ccccc21.Cl` (centres unmarked): the “hERG current change (%, negative = inhibition) at 10uM” value is -30.7%.
For `CC(C)c1c(C(=O)N/N=C/c2ccc(C(F)(F)F)cc2)nnn1-c1nonc1N`, the “hERG current change (%, negative = inhibition) at 10uM” value came out at 11.7%.
On to `CCOC(=O)C1=C(CS(=O)(=O)c2ccc(Cl)cc2)NC(=O)NC1c1ccc(O)c(OC)c1` (centres unmarked), for which the “hERG current change (%, negative = inhibition) at 10uM” value worked out at 0.805%.
In the case of `CC1CCCN(CCCNC(=O)C2CCN(S(=O)(=O)N3CCC4(CC3)OCCO4)CC2)C1` (centres unmarked), the “hERG current change (%, negative = inhibition) at 10uM” value came out at 14.6%.
Take `Cc1ccc(C(=O)Cc2nnc(C)s2)cc1`: the “hERG current change (%, negative = inhibition) at 10uM” value is listed as -18.2%.
The result for `COc1ccc(CNC(=O)CSc2nnc(C)n2-c2ccc(F)cc2)cc1` reads -22.3%.
The result for `Cc1ccc(NC(=O)CCC(=O)NNC(=O)COc2ccc([N+](=O)[O-])cc2)cc1C` reads 27.1%; that for `CCN1C(=O)C2(C(C#N)=C(N)Oc3n[nH]c(-c4ccc(Cl)cc4)c32)c2ccccc21` (centres unmarked), 17.8%.
Consider `CCOC(=O)c1nc(N)c(C(=O)OCC)[nH]1`, for which the “hERG current change (%, negative = inhibition) at 10uM” value is on record as 14.4%.
Turning to `COC(=O)CN1C(=O)COc2ccc(S(=O)(=O)NCc3ccc(F)cc3)cc21`, the “hERG current change (%, negative = inhibition) at 10uM” value is reported as -23.3%.
Next, `O=C(Nc1cccc(-c2ccc3nncn3n2)c1)C(F)(F)F`: 2.1%; `O=C(NC(Cc1ccccc1)C(=O)O)/C(=C/c1ccccc1)NC(=O)c1ccc(Br)o1` (centres unmarked): 20.1%; `CCC(=O)Nc1ccc2nn(-c3ccc(F)cc3)nc2c1`: 11.2%.
Next, `COc1ccc(-c2nnc(SCC(=O)Nc3ccccc3)n2C)cc1`: 0.214%; `COc1cccc(CNS(=O)(=O)c2cn(C)cn2)c1`: 9.73%.
For the molecule `COc1cc(C(=O)NNC(=O)COc2cccc(F)c2)ccc1OCC(=O)N1CCOCC1`, the “hERG current change (%, negative = inhibition) at 10uM” value is reported as -2.81%.
In the case of `COC(=O)C(Cc1c[nH]c2ccccc12)NC(=O)c1cc(-c2ccc(OC)c(OC)c2)oc1C` (centres unmarked), the “hERG current change (%, negative = inhibition) at 10uM” value is recorded as -3.18%.
The result for `CCCCN=C1CC(C)(C)CC(=O)/C1=C(/O)CCC` reads -7.23%; that for `O=C(CN1C(=O)C2CC=CCC2C1=O)OCc1cc(=O)n2cc(Br)ccc2n1` (centres unmarked), -19.1%.
Next, `CCOC(=O)c1c(C)c(C(=O)Nc2ccc3c(c2)OCCO3)c(C)n1CC`: 7.48%; `Cc1ccc(S(=O)(=O)N2CCC(C(=O)OCC(=O)N(Cc3ccccc3)C(C)(C)C)CC2)cc1C`: -1.29%.
The result for `CCn1cc(C(=O)NN)c(=O)c2cc(F)c(N3CCN(C)CC3)cc21` reads 15.8%; that for `CCn1c(SCC(=O)Nc2ccc(OC)cc2)nc2c1c(=O)n(C)c(=O)n2C`, -14.2%.
As to `CCOc1ccc(CC(=O)Nc2nccs2)cc1OCC`, the “hERG current change (%, negative = inhibition) at 10uM” value is -3.6%.
With `O=C(NCc1ccccc1)C(c1ccc(F)cc1)N(C(=O)c1csnn1)C1CC1` (centres unmarked), the “hERG current change (%, negative = inhibition) at 10uM” value turned out to be 6.8%.
As to `O=C1CCc2ccccc2N1`, the “hERG current change (%, negative = inhibition) at 10uM” value is given as 16.5%.
The result for `O=C1CCN(CCc2ccccc2)CCN1[C@H](COc1ccccc1)c1ccccc1` reads -75.9%; that for `COCCn1c(SCC(=O)NC(=O)NC2CCCC2)nc2ccccc2c1=O`, -20.9%.
For the molecule `CCOc1cc(NC(=O)c2ccccc2[N+](=O)[O-])c(OCC)cc1NC(=O)CC(C)C`, the “hERG current change (%, negative = inhibition) at 10uM” value turned out to be 13.6%.
The result for `CCCCc1nnc(SC(C)C(=O)Nc2nccs2)n1C` (centres unmarked) reads 11%; that for `Cc1ccc(C)c(NC(=O)CN(C)C(=O)c2ccccc2Cc2ccccc2)c1`, -25.1%.
Turning to `O=C(NCc1n[nH]c(=S)n1Cc1ccccc1)c1ccccc1`, the “hERG current change (%, negative = inhibition) at 10uM” value worked out at 5.09%.
Take `COCCN(Cc1ccc(F)cc1)C(=O)c1cc2ccccc2oc1=O`: the “hERG current change (%, negative = inhibition) at 10uM” value is listed as -0.373%.
Regarding `Cc1cc(NCCN2CCOCC2)c2ccc3ccccc3c2n1`, the “hERG current change (%, negative = inhibition) at 10uM” value is reported as -69.5%.
The result for `Cc1[nH]c(=O)[nH]c(=O)c1S(=O)(=O)N1CCCC(C(=O)NCc2ccccc2Cl)C1` (centres unmarked) reads -2.87%; that for `O=C(NCCc1nnc2ccc(NCCCN3CCOCC3)nn12)c1ccccc1F`, 1.39%.
The result for `COc1ccc2[nH]c3nc(SCC(=O)Nc4ccc5c(c4)OCO5)nnc3c2c1` reads 16.5%; that for `CCCCN(CCCC)C(=O)c1nsnc1-c1ccccc1O`, -14.8%.
The result for `CCO/N=C(/C)c1c(O)cc(C(C)(C)C)n(-c2ccccc2)c1=O` reads -11.4%; that for `O=C(COC(=O)CSc1ccc([N+](=O)[O-])cc1)NCCc1ccccc1`, 5.52%; that for `CC1(C)CC(=O)C2=C(C1)N(c1ccccc1C#N)C(N)=C(C#N)C2c1cccs1` (centres unmarked), -13%.
